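Growth conditions: 96-well plates. Treatment: test compound, 48 hours, 5 concentrations. Analysis: linear interpolation between bracketing concentrations; unreached endpoints set to highest concentration. GI50 = concentration required for 50% inhibition of growth. TGI marks complete inhibition of growth.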

The test system of the assay is NCI-H322M lung. The experiment in a line: DTP human tumour cell line panel, 48 h.
A word on the GI50: it is the concentration giving 50% growth inhibition. One may read the TGI as the concentration giving total growth inhibition. As for `O=C(/C=C/Nc1ccc(Cl)cc1)c1ccc2c(c1)Nc1ccccc1S2`, the GI50 was 12.8 µM and the TGI is more than 100 µM.

`OCCCNc1oc(-c2ccccc2)nc1[P+](c1ccccc1)(c1ccccc1)c1ccccc1`: the GI50 was 8.88 µM and the TGI is 21.6 µM.

With `COc1cc(Cn2c(C(F)(F)F)cc3c(Cl)ncnc32)ccn1`, the GI50 was 1.71 µM and the TGI is 3.3 µM.

(Values after PubChem BioAssay (NCI).)
